Source: PubChem BioAssay AID360 (National Center for Advancing Translational Sciences (NCATS), 2006)
Screen size: about 48,000 compounds; about 550 (1.1%) were called active. Roughly 4% stayed inconclusive and do not appear here. No stated cut-off is given here; in the data, active means potency below about 15 µM; inconclusive means mostly about 16 µM to 33 µM; inactive means weaker than that. The list shows a part of the results.

Molecular target: Lysosomal acid glucosylceramidase (Homo sapiens) (UniProt P04062)
Chain of UniProt P04062 (P04062 whole entry, looked up): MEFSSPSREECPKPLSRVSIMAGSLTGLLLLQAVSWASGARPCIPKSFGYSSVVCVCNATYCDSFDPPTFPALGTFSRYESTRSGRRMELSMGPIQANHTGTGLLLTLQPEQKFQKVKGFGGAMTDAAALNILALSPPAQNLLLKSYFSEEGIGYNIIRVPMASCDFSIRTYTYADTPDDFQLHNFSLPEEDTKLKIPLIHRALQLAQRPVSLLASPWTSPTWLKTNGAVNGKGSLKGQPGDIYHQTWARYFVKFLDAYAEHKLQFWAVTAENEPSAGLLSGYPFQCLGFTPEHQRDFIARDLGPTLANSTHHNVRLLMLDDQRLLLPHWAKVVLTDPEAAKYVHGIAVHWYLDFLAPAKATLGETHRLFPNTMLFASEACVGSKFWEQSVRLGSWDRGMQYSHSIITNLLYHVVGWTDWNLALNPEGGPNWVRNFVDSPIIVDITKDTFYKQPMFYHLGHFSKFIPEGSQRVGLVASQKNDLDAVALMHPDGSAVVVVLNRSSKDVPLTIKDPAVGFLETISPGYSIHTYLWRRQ
Test: Glucocerebrosidase;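 further: the screen sought inhibitors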
Conditions: purified enzyme, resorufin glucoside fluorescence (screen aimed at inhibitors), 20 min
In short: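 Normal human glucocerebrosidase (0.2 nM final) was assayed with resorufin β-D-glucopyranoside (30 uM final) in 50mM citric acid/KH2PO4, 10mM sodium taurocholate, 0.01% tween-20, pH 5.9. Compounds were titrated; fluorescence (Ex 548, Em 600) read after 20 min at RT.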
Potency means the concentration at half of the fitted maximal effect.

Potency, inactive:
CCc1ccccc1N(CC(=O)Nc1cccc(N(C)S(C)(=O)=O)c1)S(C)(=O)=O > 76.9 µM
COc1cc2c(cc1OC)-c1cc(NC3CCCCCCC3)nc(=O)n1CC2 > 76.9 µM
Cn1c(SCc2nc3ccccc3[nH]2)nnc1-c1cccs1 > 76.9 µM
Cc1nnc(SCC(=O)NCc2ccco2)[nH]c1=O > 76.9 µM
COc1ccc(Cl)cc1S(=O)(=O)N1CCN(C(=O)COc2ccccc2)CC1 > 76.9 µM
CN1C(=C2C(=O)OC(C)(C)OC2=O)Sc2ccccc21
COc1ccc(C(=O)Nc2ccc(S(=O)(=O)Nc3onc(C)c3C)cc2)cc1OC > 76.9 µM
O=c1[nH]c2cc3c(cc2cc1C(c1nnnn1Cc1ccccc1)N1CCCc2ccccc21)OCO3 (configuration not stated) > 76.9 µM
CCN(CC)C(=O)C1=C(C)NC(=O)NC1c1c(F)cccc1Cl (configuration not stated) > 76.9 µM
CCc1c(C)nc2ncnn2c1NCCc1ccc(OC)c(OC)c1
O=C(CCC(=O)NC1CCN(Cc2ccccc2)CC1)NCc1ccco1 > 76.9 µM
CC1N/C(=C\C(=O)c2ccccc2)N(O)C1(C)C (configuration not stated) > 76.9 µM
CSc1nncc(-c2ccc(F)c(F)c2)n1 > 76.9 µM
FC(F)(F)c1nnc2sc(-c3cccs3)nn12 > 76.9 µM
COCCOC(=O)c1c(C)oc2ccc(NS(=O)(=O)c3ccc(C(=O)O)cc3)cc12 > 76.9 µM
Fc1ccc(-c2noc(C3CCN(Cc4cccnc4)CC3)n2)cc1 > 76.9 µM
COCCN1C(=O)C(=O)/C(=C(/O)c2cccc(OC)c2)C1c1ccco1 (configuration not stated) > 76.9 µM
CC(=O)Nc1c(C(=O)c2ccc(F)cc2)oc2ccccc12 > 76.9 µM
O=c1c2ccccc2nc(SCc2cn3ccsc3n2)n1-c1ccccc1F > 76.9 µM
CCOC(=O)c1cccc(S(=O)(=O)N(CCO)Cc2cc3cc(OC)ccc3[nH]c2=O)c1 > 76.9 µM
O=C(CSc1nnc2scc(-c3ccccc3)n12)Nc1ccc2c(c1)OCCO2 > 76.9 µM
CCOc1ccc(OCC)c(NC(=O)CSc2nc3c(c(=O)n(C)c(=O)n3C)n2C)c1 > 76.9 µM
Cc1cccc(NC(=O)CSc2n[nH]c(-c3ccncc3)n2)c1 > 76.9 µM
O=C1c2ccccc2C(=O)N1CCN1CCCCC1 > 76.9 µM
O=C(NCCC1=CCCCC1)c1ccc(F)c(S(=O)(=O)N2CCOCC2)c1 > 76.9 µM
COCCNC(=O)C1CCCN(c2ncccn2)C1 (configuration not stated) > 76.9 µM
COC(=O)c1ccccc1NC(=O)C1CCCN(S(=O)(=O)c2ccccc2)C1 (configuration not stated) > 76.9 µM
CN(C)CCCNC(=O)CC(c1ccccc1)c1ccccc1O (configuration not stated) > 76.9 µM
Cc1cc(O)cc(=O)n1Cc1ccco1 > 76.9 µM
Cc1noc(C)c1COc1ccc(C(=O)OCC(=O)NC(=O)C2COc3ccccc3O2)cc1 (configuration not stated) > 76.9 µM
CCc1cccc(CC)c1N(COC)C(=O)Cn1c(CO)nc2ccccc21 > 15.4 µM
CC(=O)c1sc2nc(=O)c(C)nn2c1C > 76.9 µM
Cc1c(Cl)cccc1NC(=O)CSc1nnc(CCNC(=O)OC(C)(C)C)o1 > 76.9 µM
COc1ccccc1Oc1cc(C#N)c(C#N)cc1-n1nnc2ccccc21 > 76.9 µM
COc1ccc(Br)cc1-c1noc(-c2ccccc2F)n1
N#Cc1c(N)nc2c(c1-c1ccc3c(c1)OCO3)CCCCCC2 > 76.9 µM
CCOc1ccc2c(c1)c1nnc(SCC(=O)N3CCC(C)CC3)nc1n2C > 76.9 µM
CSc1nsc(SCC(=O)NC2CCCCC2)n1 > 76.9 µM
O=C(Nc1ccccc1)NC1(C(=O)N2CCN(c3ncccn3)CC2)CCCCC1 > 76.9 µM
O=C(CN1CCOCC1)Nc1ccc(Oc2ccc(NC(=O)CN3CCOCC3)cc2)cc1
COc1ccc(C)cc1NC(=O)CSc1nnc(-c2ccco2)n1Cc1ccco1 > 76.9 µM
Cc1ccc(CNC(=O)C(C)OC(=O)c2ccco2)cc1 (configuration not stated) > 76.9 µM
C=CCn1c(Sc2nnc(C)s2)nc2c1c(=O)[nH]c(=O)n2C > 76.9 µM
COC(=O)[C@H](CC(C)C)NC(=O)NC1CCCc2ccccc21 (some centres not stated) > 76.9 µM
COC(=O)C1CCN(C(=O)COC(=O)c2n[nH]c3ccccc23)CC1 > 76.9 µM
Cn1c(=O)n(CCOc2ccccc2Cl)c2ccccc21 > 76.9 µM
CC1CCN(C(=O)c2ccccc2NC(=O)c2cccc(S(=O)(=O)N3CCOCC3)c2)CC1 > 76.9 µM
O=C(O)C1C2CCC(O2)C1C(=O)Nc1cccc(F)c1 (configuration not stated) > 76.9 µM
Cc1nc(C)c(C(=O)Nc2ccc(Oc3ccccc3)cc2)o1 > 76.9 µM
Cc1nc(C)c(C(=O)NCc2ccccc2Cl)o1 > 76.9 µM
CCOC(=O)c1sc(=S)n(-c2ccccc2OC)c1N > 76.9 µM
Cc1nccc2[nH]c(=O)c(C(=O)NC3CCCCC3C)cc12 (configuration not stated) > 76.9 µM
O=C1OCCC1Sc1nc2ccccc2[nH]1 (configuration not stated) > 76.9 µM
Cc1c(C(=O)N2CCN(c3ccc(C(F)(F)F)cn3)CC2)oc2ccccc12 > 76.9 µM
CC1CC(C)CN(c2ncnc3c2cnn3Cc2ccc(Cl)cc2)C1 (configuration not stated) > 76.9 µM
Cc1c(NS(=O)(=O)c2cccs2)c(=O)n(-c2ccccc2)n1C > 76.9 µM
CCOc1ccccc1NC(=O)CSc1nnc(CNC(=O)c2ccco2)o1 > 76.9 µM
O=C(Nc1ccc2c(c1)OCO2)c1ccc(COc2ccc3c(c2)CCC3)o1 > 76.9 µM
Nc1c(C(=O)N2CCOCC2)sc(=S)n1-c1ccccc1 > 76.9 µM
COc1cc(C2Nc3ccc4ncccc4c3C3=C2C(=O)CCC3)cc(OC)c1O (configuration not stated) > 76.9 µM
COc1ccc(N2CCN(C(=O)CSc3nnc(CNc4ccccc4)o3)CC2)cc1 > 76.9 µM
COc1ccc2c(=O)c(C(=O)NCCc3ccc(OC)c(OC)c3)c[nH]c2c1 > 76.9 µM
CCOC(=O)COc1ccc(CCNC(C)=O)cc1 > 76.9 µM
CCCn1c2c(c(O)c(C(=O)Nc3nc(C)cs3)c1=O)CCCC2 > 76.9 µM
CCOC(=O)C1(CC)NC(c2ccco2)C2C(=O)N(c3ccc(C)cc3)C(=O)C21 (configuration not stated) > 76.9 µM
COc1ccc(-n2c(SCC(=O)Nc3nccs3)nc3sc4c(c3c2=O)CCN(C)C4)cc1 > 76.9 µM
COc1cccc(-n2nnnc2SCC(=O)c2ccc(NC(C)=O)cc2)c1 > 76.9 µM
COC(=O)c1ccccc1NC(=O)c1ccccc1N(C)S(C)(=O)=O > 76.9 µM
Cc1cc(C(=O)N2CCC(C(F)(F)F)n3nccc32)on1 (configuration not stated) > 76.9 µM
O=c1c2c3c(sc2nc2n1CCC2)CCC3 > 76.9 µM
Cc1ccc(-n2[nH]c(C)c(/C=N/c3ccccn3)c2=O)cc1 > 76.9 µM
Cc1nc2sc3c(c2c2nc(-c4ccco4)nn12)CC(C)(C)OC3 > 76.9 µM
COc1ccc(S(=O)(=O)N2CCC(C(=O)N3CCCC3)CC2)cc1Cl > 76.9 µM
COC(=O)Oc1c(Br)c(=O)oc2ccccc12 > 76.9 µM
c1ccc(-c2noc(CSc3nc4ccccc4o3)n2)cc1 > 76.9 µM
Cc1ccc(Cl)cc1NC(=O)c1ocnc1C > 76.9 µM
CSc1ccc(S(=O)(=O)N2CCCC2)cc1 > 76.9 µM
CCCN(Cc1cc2ccc(C)cc2[nH]c1=O)C(=O)c1cccnc1 > 76.9 µM
O=C(CSc1nnc(CCc2nc3ccccc3[nH]2)n1-c1ccccc1)NCc1ccco1 > 76.9 µM
O=C(NCC(c1cccnc1)N1CCOCC1)c1ccc2c(c1)OCO2 (configuration not stated) > 76.9 µM
O=S(=O)(Nc1ncnc2sc3c(c12)CCC3)c1ccc(Cl)s1 > 76.9 µM
Cc1cc(C)n(CC(O)COc2ccccc2C(=O)Nc2ccccc2)n1 (configuration not stated) > 76.9 µM
Cc1ccc(C)c(NC(=O)CCn2nc(C)cc2C)c1 > 76.9 µM
CCCCN(CC)CCCNC(=O)CS(=O)(=O)Cc1nc(-c2cccc(OC)c2)oc1C > 76.9 µM
CCOc1cc(N2CCOCC2)c(OCC)cc1NC(=O)CN1CCc2ccccc2C1 > 76.9 µM
Cc1ccc(/C=N/n2c(C)nnc2C)s1 > 76.9 µM
O=C(c1nc2ncccn2n1)N1CCc2ccccc2C1 > 76.9 µM
COCCSc1ccccc1C(=O)Nc1nccs1 > 76.9 µM
CN1CCN(S(=O)(=O)c2cccc(C(=O)N(c3ccccn3)C3CCCCC3)c2)CC1 > 76.9 µM
CCCCSc1nnc(CCC)n1N > 76.9 µM
Cc1ccc(C)c(Cn2cnc3c(cnn3C(C)(C)C)c2=O)c1 > 76.9 µM
CC1(c2ccc3c(c2)OCO3)NC(=O)N(CC(=O)NCCC2=CCCCC2)C1=O (configuration not stated) > 76.9 µM
